Test results published in article PMC10726135.
This is one part of the list. At the low end of the ranking the order means little. Measured with an extract: partners may take part in the binding.

What follows are sequences tested against T1, HNF4alpha8 (COS-7 nuclear extract) (UniProt P41235-5) (assay: protein-binding microarray). Conditions: COS-7 nuclear extract on double-stranded Agilent 4x180k PBM; binding buffer, salt, pH and temperature not given; high values mean tight binding; double strand, one strand shown; sequences stand for … in …GCCTAGGGAGATTAGAGTATCGGTCGA.
T1 sequence: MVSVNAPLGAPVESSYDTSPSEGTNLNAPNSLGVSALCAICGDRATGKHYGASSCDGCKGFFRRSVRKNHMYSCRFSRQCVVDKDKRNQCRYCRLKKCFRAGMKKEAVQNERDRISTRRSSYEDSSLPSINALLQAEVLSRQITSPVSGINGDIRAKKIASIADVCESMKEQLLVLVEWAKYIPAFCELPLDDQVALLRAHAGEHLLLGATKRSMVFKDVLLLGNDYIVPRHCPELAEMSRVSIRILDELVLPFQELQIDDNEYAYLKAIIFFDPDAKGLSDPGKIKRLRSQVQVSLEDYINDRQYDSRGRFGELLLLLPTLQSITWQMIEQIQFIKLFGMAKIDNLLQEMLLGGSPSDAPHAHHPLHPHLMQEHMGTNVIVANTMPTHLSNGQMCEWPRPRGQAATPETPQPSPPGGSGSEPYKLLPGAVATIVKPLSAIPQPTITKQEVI

| Sequence | binding signal (log2 normalized intensity) |
| --- | --- |
| GCCAAAGGTCAGAGTTGAACCCTTGGGGCT | 4.38 |
| GCCAGAGAGATGTCAGCCCAAGATAACCTC | -1.07 |
| TCCTTTTATCTTACATGCCTTATCTGGTTC | 1.64 |
| TAATTGCATTCTTTGATGTGCTGGGAGTCA | 0.191 |
| ATCAAGGACTGGGCTGGAACACAAAGAAAG | -1.32 |
| AGGCAGGCAGCTTCCAGGTGACAGTTAGGT | -0.969 |
| GTGGGAGAAAGCTTTGGACTTTGGGCTGTG | 6.47 |
| ATGATTGACAGGTTATTTCAATTACAAAGC | 0.0291 |
| AAGAATGGGCAGAAGTAGGATAAGGGTAGG | -1.23 |
| GGAATTTGGACTTCAGCCCAGGCTGATTAT | 4.7 |
| GGAAGTCCAACCTTTGCTCACTTGGGGGTG | 3.03 |
| TGGTCAAGGGTCAGTTTCTGAGAGTGGCAA | 3.1 |
| TGATAAAACAAATCTACAAATGTTTCAACA | -1.25 |
| GAAGCGCACTAAGCCGAACGCTGGGGCAAA | -1.32 |
| GAGACCCATTTTGGACTTTGACCTCCAAAA | 11.3 |
| CCAAGGAGACACCCCTGCAGAAGCGGGAGA | -1.34 |
| TTCTCTCCCCCAACCCCACCTTCATTCTTC | 4.32 |
| TTCTCAAGGACCTAGAGCTATTCCTTTGAA | -1.17 |
| ATGTCATGACCTTCATCAATCAGCCTGATA | 0.623 |
| TAATCTTCACTTGCCACATTTATTGTGAGA | 0.789 |
| GTCCAGGCCATGCAACAGCCTCCTCACTAG | -1.29 |
| GGGCTGGGTAAAATGAGAATGAGACCTGCT | -1.2 |
| TCCGTAACCTCACAGAAATCCAAAGGTCAA | 5.78 |
| ATTTACATCAAACACTCACTGGGAGAGAAA | -0.282 |
| CCCTTCCCCGCTCTCCCCGCCCCCTCTCCG | 5.95 |

| Sequence | binding signal (log2 normalized intensity) |
| --- | --- |
| ATGCAGTGGGTCAGTCTGAGATAGTCATTC | 1.12 |
| CTCATCCATGAATCCTGTGGTAGCCACTCT | -1.07 |
| ACTTTGGCTACTCAGTTTTTTGGCCGTCTT | 1.01 |
| ACATTGTGTATGGACTGTAATACACAAGCA | 1.16 |
| ACGGGCCTGAAAACTGGAGGCCGCGACAAG | -1.22 |
| CAAACAACAGGCATCAACTCTATCATACTC | -1.35 |
| GGTGTCCAGATTCCAGCCTCCTGCTCTGGG | -1.33 |
| CTCAAAGTGCTTTTCAATCTTATTTTTACT | -1.16 |
| TGGTCCTGGAACTCAAAGGTCAAATGACAG | 4.49 |
| AACAAGGATAGCGTCATCAGTCCAGGAGGG | -1.35 |
| AAACCAACCCTGCCAAAGGTTAAAATTCCC | 1.83 |
| ACATGAGCCTCTTTATCTCTCTCTCTTTCT | 0.312 |
| AGTGACCCTGTCTCTCAGTCTCTGTGGGAG | 1.23 |
| AAGGTCACCCGTATTCCTTAGCTTATCGTC | 0.265 |
| ACCAGCAATTTTCAGGGTTAAAAGTTCTGC | 1.05 |
| GCATATGAGTAATGTGAAGACTTCGCTGGA | -1.22 |
| GGAACACAATAGGAATTCAACCAATGTGGA | -1.15 |
| GACTCATCTCCAAACGAGACTTTGGACTTT | 9.58 |
| CCGCAGCGCTGGTGGCTGCAAGGTTTGTGT | 0.472 |
| TCCCTGCAGTCAGGACTCTGGGACCGCAGG | -1.31 |
| TTCTTTTCCCAAACCACGTTTCTGTGGTCA | 1.21 |
| GGTGCCAGAATTGCTGCTCCCCCTCCCAAA | 4.91 |
| GGTCACTCTTGCTATGCCTTAGCAAACAGA | -1.3 |
| ACCAGGCCGGGTCACGTGGGTCCAGGGTCA | 3.6 |
| TACCCCCATACTTTATTTAGCTTTAGTTCA | 1.43 |

| Sequence | binding signal (log2 normalized intensity) |
| --- | --- |
| AATGGAAGGCAGTGTTCCAAAGTGTAAAAG | 0.755 |
| CAGTATAGTTAGGGCCTTGCAGGGGGCCTC | -1.08 |
| CTTTAAACTGGTGTGTCTTGCCTTTCCACC | 0.447 |
| CAGTGGCTGAGACAATGAGTGCTTCAGTCC | -0.568 |
| CTAGGCTCCAGGGCACTGCCCTTTGGAACC | 7.42 |
| CCAGATTCTCTCACTGCTCTGGCCACTCCC | -1.34 |
| CCTGCAAGGATTGATCAGCACATGAAGGTC | 1.8 |
| CCTGCACCTGAACTTTGCTCTGTGACACAA | 4.87 |
| GAAGGCAGCCAAACAGAGGCTGAAATGGTT | -1.36 |
| CACACACCTGTGCAAACATTGGTTGCAAAA | -1.27 |
| TCCCTCCGTGGGGCTCCTTTGATCTCCGTG | 0.909 |
| TCTTGACATCTCTCTCTGCAGCTGAGTAGA | -0.659 |
| AAAAGTCTCAGGGGCCTTGCAATGAGGCGA | -1.25 |
| GTGACTACCTGGTTAAAAGGACAACCTTCG | -0.397 |
| CAGAGCTGTCGTCCCAGGGCAAAGGTCACC | 8.47 |
| ACAGGAAAAAAAAAAATTACTGACCCTTGC | 3.04 |
| TCAGTTCCTATTTCAACATCCTCTCAGGTC | 1.22 |
| TAACAAACATTACTAACTGGACTTTATCTA | 3.68 |
| TTTCAACCCTGTGATGACCCCATACTTCAG | 4.29 |
| CTGTTGAACATTAACTCTCTGTGAGTGTGT | 1.65 |
| GAAAGGGGCCTCAGAGAAAGCCTGTTTGCT | -1.38 |
| TGGAGGAGCTGAACTGTAACCTCAAAGGAG | -1.22 |
| TTTGCCTGAACTTTAAACTGGTGTGTCTTG | 2.95 |
